# Experimental data as given in PubChem BioAssay AID1460 (National Center for Advancing Translational Sciences (NCATS), 2008).
# The campaign covered roughly 270,000 compounds. About 5,800 (2.1%) were called active. This list was built around the results that the source calls inconclusive (neither active nor inactive); the mix of calls is not that of the screen. Calls follow the shape of the dose curve; as a rule, active = well fitted inhibition curve with a large enough effect; inconclusive = small, poorly fitted or top-dose-only effect; inactive = flat fitted curve, though single readings scatter. Potencies beside an inconclusive call are fits to weak or partial responses and may not hold up.
# Molecular target: Microtubule-associated protein tau (Homo sapiens) (UniProt P10636)
# Assay: qHTS for Inhibitors of Tau Fibril Formation, Thioflavin T Binding; also: nearly all actives have a fitted effect of over 55% in size
# Details: recombinant tau K18 P301L, heparin-induced fibrillization, ThT fluorescence; series mostly up to 57.4 µM; activity, negative = inhibition: at the top concentration
# Outline: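 Fibril formation assay: tau K18 P301L at 15 uM with trace Alexa 594 label, heparin inducer 20 uM, pH 7 sodium acetate buffer, 37 C for 6 hr; endpoint ThT signal.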
# % is scaled to controls: 0 for no effect and ±100 for the full control effect; potency is read from the fitted curve at half-maximal effect; tags tell the direction and shape of the fitted curve.
# UniProt P10636, sequence (P10636 whole entry, looked up): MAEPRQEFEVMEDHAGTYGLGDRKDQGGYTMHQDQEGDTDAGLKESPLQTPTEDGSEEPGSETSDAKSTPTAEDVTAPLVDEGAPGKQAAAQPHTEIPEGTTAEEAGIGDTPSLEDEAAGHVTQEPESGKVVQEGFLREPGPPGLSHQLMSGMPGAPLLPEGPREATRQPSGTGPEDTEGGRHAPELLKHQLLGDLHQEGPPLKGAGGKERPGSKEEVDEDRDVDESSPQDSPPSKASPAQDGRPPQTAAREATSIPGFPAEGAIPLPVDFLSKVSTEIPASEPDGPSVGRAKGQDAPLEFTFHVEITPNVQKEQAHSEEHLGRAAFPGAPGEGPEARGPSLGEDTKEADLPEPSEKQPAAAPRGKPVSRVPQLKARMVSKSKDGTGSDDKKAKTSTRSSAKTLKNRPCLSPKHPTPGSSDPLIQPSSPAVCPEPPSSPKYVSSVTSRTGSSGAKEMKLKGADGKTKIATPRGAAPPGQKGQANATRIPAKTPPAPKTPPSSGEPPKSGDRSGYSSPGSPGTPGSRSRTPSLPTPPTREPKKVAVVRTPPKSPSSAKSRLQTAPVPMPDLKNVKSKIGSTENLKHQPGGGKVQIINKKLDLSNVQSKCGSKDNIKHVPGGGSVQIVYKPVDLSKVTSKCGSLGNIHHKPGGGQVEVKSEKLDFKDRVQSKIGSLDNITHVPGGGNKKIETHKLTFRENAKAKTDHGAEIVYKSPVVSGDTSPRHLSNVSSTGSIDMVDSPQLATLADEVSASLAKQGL
Compound,Potency,"activity, negative = inhibition"
CNC(=O)c1c(NC(=O)c2cc(=O)c3cc(C)c(C)cc3o2)sc2c1CCCC2,"inconclusive: 4.47 µM [inhibitor, single point]",
C/C(CC(=O)Nc1cccnc1)=N\NC(=O)C(=O)Nc1cccc(C)c1,"inconclusive: 11.2 µM [inhibitor, partial curve]",
O=C1c2ccccc2-c2ncnc3c(N4CCOCC4)cc(N4CCOCC4)c1c23,active: 8.91 µM,
COc1ccc(-c2noc(-c3cccc(Cl)c3)n2)cc1OC,"inconclusive: 5.01 µM [inhibitor, partial curve]",
CN(C)C(=S)Nc1cccc(F)c1,,inactive: 1.99%
COc1ccc(NC(=O)COc2nsnc2N2CCCCC2)cc1,"inconclusive: 28.2 µM [inhibitor, partial curve]",
Cn1c(SCc2ccc(C#N)cc2)nnc1-c1cccc(Cl)c1,"inconclusive: 20 µM [inhibitor, single point]",
Cc1cccc(C)c1Nc1c(-c2ccc(N3CCOCC3)cc2)nc2ncccn12,"inconclusive: 20 µM [inhibitor, partial curve]",
COc1ccc(CC(=O)Nc2ncc([N+](=O)[O-])s2)cc1OC,"inconclusive: 22.4 µM [inhibitor, partial curve]",
COc1cc(OC)nc(NC(=O)COC(=O)c2cccc(Cl)c2)n1,,inactive: -7.26%
COc1ccc(Br)cc1[C@H]1[C@@H]2C=CCC[C@@]2(C)C(=O)N1Cc1ccccc1,"inconclusive: 39.8 µM [inhibitor, single point]",
CC1CCN(c2ccc(/C=C(\C#N)c3nn(-c4ccccc4)c(N)c3C#N)cc2[N+](=O)[O-])CC1,"inconclusive: 3.55 µM [inhibitor, partial curve]",
COc1ccc(CN(C)CC(=O)Nc2cc3oc4ccccc4c3cc2OC)c(OC)c1,"inconclusive: 28.2 µM [inhibitor, partial curve]",
CSc1nnc2c(n1)c(C)nn2-c1cccc(C)c1,"inconclusive: 22.4 µM [inhibitor, partial curve]",
O=C(CSc1nnc(CNC(=O)c2ccccc2F)o1)c1ccc(Cl)cc1,"inconclusive: 12.6 µM [inhibitor, partial curve, poor fit]",
CSc1sc2ccccc2[n+]1CCCS(=O)(=O)[O-],"inconclusive: 31.6 µM [inhibitor, partial curve, poor fit]",
O=C(NCC(c1cccnc1)N1CCc2ccccc2C1)C(=O)Nc1ccccc1F (stereo not drawn),"inconclusive: 3.55 µM [inhibitor, full curve]",
CCCCc1ccc(Nc2cc(C)nc(-n3nc(C)cc3C)n2)cc1,"inconclusive: 31.6 µM [inhibitor, single point]",
O=c1c2c3nc4ccccc4nc3n(/N=C/c3cccs3)c2ncn1-c1ccccc1,"inconclusive: 31.6 µM [inhibitor, partial curve]",
Cc1cccc(OCC(=O)Nc2cccc(C(=O)OCc3cc(=O)n4nc(C(C)C)sc4n3)c2)c1,"inconclusive: 1 µM [inhibitor, full curve, poor fit]",
COC(=O)c1ccc(NC(=O)Cn2ccn3nc(-c4ccc(OC)cc4)cc3c2=O)cc1,,inactive: -14.5%
CC(C)(C)OC(=O)N1CCCN(C(=O)Nc2ccc(C(F)(F)F)cc2)CC1,"inconclusive: 44.7 µM [inhibitor, single point]",

Compound,Potency,"activity, negative = inhibition"
CCCC(=O)Nc1ccccc1NC(=O)c1ccc(OC(C)=O)cc1,,inactive: -7.47%
CCOc1cc(C2CC(=O)NC(SCC)=C2C#N)ccc1O (stereo not drawn),,inactive: -5.19%
CCn1c(SCC(=O)NCc2ccco2)nnc1C(C)C,"inconclusive: 22.4 µM [inhibitor, partial curve]",
C(=N\Nc1ccc2ccccc2n1)/c1ccc2c(c1)OCCO2,"inconclusive: 7.08 µM [inhibitor, partial curve]",
Cc1[nH][nH]c(=O)c1C(c1ccc(-c2ccccc2C(=O)O)o1)c1c(C)[nH][nH]c1=O,active: 11.2 µM,
Cc1ccc(NNC(=O)c2c(F)cccc2Cl)cc1Cl,"inconclusive: 11.2 µM [inhibitor, partial curve, poor fit]",
Cc1ccc2nc(N3CCN(C(=O)c4cccs4)CC3)c(C#N)cc2c1,"inconclusive: 28.2 µM [inhibitor, partial curve]",
CCc1ccc(NS(=O)(=O)c2ccc3[nH]cc(C(=O)N4CCc5ccccc54)c(=O)c3c2)cc1,,inactive: -1.96%
O=C(Nc1ccccc1)N1CCCN(c2c(Cl)cncc2Cl)CC1,,inactive: -8.97%
COc1ccc(Cn2c(-c3ccco3)nc3oc4cc(OC)ccc4c(=O)c3c2=O)cc1,"inconclusive: 8.91 µM [inhibitor, partial curve]",
Cc1ccc(S(=O)(=O)/C(C#N)=C/c2c(N3CC(C)OC(C)C3)nc3c(C)cccn3c2=O)cc1 (stereo not drawn),"inconclusive: 28.2 µM [inhibitor, partial curve]",
Cc1ccccc1NC(=O)c1ccc(NS(=O)(=O)c2cc(C(C)(C)C)cc(C)c2C)cc1,,inactive: -1.31%
O=C(O)c1cc(-c2ccco2)[nH]n1,"inconclusive: 17.8 µM [inhibitor, partial curve]",
COc1cc(C(=O)N2CCNC(=O)C2CC(=O)Nc2ccc(C)c(C)c2)cc(OC)c1OC (stereo not drawn),,inactive: 1.05%
COC(=O)CSc1nc(N2CCCCC2)c2c(c1C#N)CCCC2,"inconclusive: 12.6 µM [inhibitor, partial curve]",
CC(=O)c1c(N2CCN(C)CC2)nc(=S)n(Cc2ccccc2)c1C,,inactive: 4.05%
N=C(N)c1ccc(/C=C/c2ccc(C(=N)N)cc2O)cc1,"inconclusive: 28.2 µM [inhibitor, partial curve]",
COc1ccc(-c2nc(CSCC(=O)NCCC3=CCCCC3)c(C)o2)cc1OC,"inconclusive: 2.51 µM [inhibitor, partial curve, poor fit]",
Cn1c(-c2ccco2)nc2cc3ccccc3cc21,"inconclusive: 0.355 µM [inhibitor, full curve]",
COc1ccc(C2NC(=O)NC3=C2CCc2ccccc23)cc1 (stereo not drawn),active: 25.1 µM,
COc1ccc2oc(=O)c(-c3nnc(NCc4ccco4)s3)cc2c1,"inconclusive: 3.16 µM [inhibitor, full curve]",
